Source: the DeepSol protein solubility set

Assay: soluble on expression in E. coli; label from the status in PepcDB or PDB records

Row | Sequence | soluble on expression in E. coli
1 | MAAIRKKLVIVGDGACGKTCLLIVFSKDQFPDVYVPTVFENYVADIEVDGKQVELALWDTAGQEDYDRLRPLSYPDTDVILMCFSIDSPDSLENIPEKWTPEVRHFCPNVPIILVGNKRDLRSDPQTVRELAKMKQEPVKPEQGRAIAEQIGAFAYLECSAKTKDGIREVFEKATQAALQQKKKKKSKCMIL | not soluble
2 | MDSQGRKVIVVDNGTGFVKCGYAGTNFPAHIFPSMVGRPIVRSTQRVGNIEIKDLMVGEECSQLRQMLDINYPMDNGIVRNWDDMAHVWDHTFGPEKLDIDPKECKLLLTEPPLNPNSNREKMFQVMFEQYGFNSIYVAVQAVLTLYAQGLLTGVVVDSGDGVTHICPVYEGFALHHLTRRLDIAGRDITKYLIKLLLQRGYNFNHSADFETVRQMKEKLCYIAYDVEQEERLALETTVLSQQYTLPDGRVIRLGGERFEAPEILFQPHLINVEKAGLSELLFGCIQASDIDTRLDFYKHIVLSGGTTMYPGLPSRLEKELKQLYLDRVLHGNTDAFQKFKIRIEAPPSRKHMVFLGGAVLANLMKDRDQDFWVSKKEYEEGGIARCMAKLGIKA | not soluble
3 | MGHHHHHHSHMEIGSAGPAGAQPLLMVPRRPGYGTMGKPIKLLANCFQVEIPKIDVYLYEVDIKPDKCPRRVNREVVDSMVQHFKVTIFGDRRPVYDGKRSLYTANPLPVATTGVDLDVTLPGEGGKDRPFKVSIKFVSRVSWHLLHEVLTGRTLPEPLELDKPISTNPAHAVDVVLRHLPSMKYTPVGRSFFSAPEGYDHPLGGGREVWFGFHQSVRPAMWKMMLNIDERDLWQQCGE | not soluble
4 | MKLIESNDTVVFPEGVTFTVKNRIVHVTGPRGTIRKDFRHLHMEMERIGKSTLRVRKWFGVRKELAAIRTVCSHIKNMIKGVTVGFRYKMRSVYAHFPINVTLQDGNRTVEIRNFLGEKIVRRVPLPEGVIATISTAQKDEIVVEGNDVQFVSQAAARIQQSTAVKEKDIRKFLDGIYVSEKTTIVPTD | soluble
5 | MKVNPFVSSDSGKSRKAHFNAPSHERRRIMSAPLTKELRTKHGIRAIPIRTDDEVVVMRGRHKGNTGRVLRCYRKKFVIHIDKITREKANGSTVHIGIHPSKVAITKLKLDKDRRALVERKAAGRSRVTGILKGKHTDETVN | soluble
6 | MLRHKTKRGHASLDCLKVFDGIPPPYDKKKRMVVPAALKVVRLKPTRKFALLGRQAQEVRWKYQAVTATLEEKRKEKAKIHYWKKKQLMRLRKQAEKNVKKN | not soluble
7 | TCVFEKENDPTVLRSPSAGKLTQYTVEDGGHVEAGSSYAEMEVMKMIMTLNVQERGRVKYIKRPGAVLEAGCVVARLELDDPSKVHP | soluble
8 | YPLDGAARGEDTSMNLVQKYLENYYDLKKDVKQFVRRKDSGPVVKKIREMQKFLGLEVTGKLDSDTLEVMRKPRCGVPDVGHFRTFPGIPKWRKTHLTYRIVNYTPDLPKDAVDSAVEKALKVWEEVTPLTFSRLYEGEADIMISFAVREHGDFYPFDGPGNVLAHAYAPGPGINGDAHFDDDEQWTKDTTGTNLFLVAAHEIGHSLGLFHSANTEALMYPLYHSLTDLTRFRLSQDDINGIQSLYGPPPDSPET | soluble
